Article PMC4336329 (PLoS ONE, 2015)
Hit rate of the full screen: of about 310,000 compounds, about 14,000 (4.5%) showed an effect of 50% or more. Effects have a minus sign here. Some of the results follow.

biological target: human ether-à-go-go-related gene (hERG) potassium channel (human, UniProt Q12809); test: primary screen, population patch clamp on CHO cells stably expressing hERG
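Also: peak tail current of the secondary pulse compared with the same well before compound.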

human ether-à-go-go-related gene (hERG) potassium channel, sequence (Q12809 whole entry, looked up): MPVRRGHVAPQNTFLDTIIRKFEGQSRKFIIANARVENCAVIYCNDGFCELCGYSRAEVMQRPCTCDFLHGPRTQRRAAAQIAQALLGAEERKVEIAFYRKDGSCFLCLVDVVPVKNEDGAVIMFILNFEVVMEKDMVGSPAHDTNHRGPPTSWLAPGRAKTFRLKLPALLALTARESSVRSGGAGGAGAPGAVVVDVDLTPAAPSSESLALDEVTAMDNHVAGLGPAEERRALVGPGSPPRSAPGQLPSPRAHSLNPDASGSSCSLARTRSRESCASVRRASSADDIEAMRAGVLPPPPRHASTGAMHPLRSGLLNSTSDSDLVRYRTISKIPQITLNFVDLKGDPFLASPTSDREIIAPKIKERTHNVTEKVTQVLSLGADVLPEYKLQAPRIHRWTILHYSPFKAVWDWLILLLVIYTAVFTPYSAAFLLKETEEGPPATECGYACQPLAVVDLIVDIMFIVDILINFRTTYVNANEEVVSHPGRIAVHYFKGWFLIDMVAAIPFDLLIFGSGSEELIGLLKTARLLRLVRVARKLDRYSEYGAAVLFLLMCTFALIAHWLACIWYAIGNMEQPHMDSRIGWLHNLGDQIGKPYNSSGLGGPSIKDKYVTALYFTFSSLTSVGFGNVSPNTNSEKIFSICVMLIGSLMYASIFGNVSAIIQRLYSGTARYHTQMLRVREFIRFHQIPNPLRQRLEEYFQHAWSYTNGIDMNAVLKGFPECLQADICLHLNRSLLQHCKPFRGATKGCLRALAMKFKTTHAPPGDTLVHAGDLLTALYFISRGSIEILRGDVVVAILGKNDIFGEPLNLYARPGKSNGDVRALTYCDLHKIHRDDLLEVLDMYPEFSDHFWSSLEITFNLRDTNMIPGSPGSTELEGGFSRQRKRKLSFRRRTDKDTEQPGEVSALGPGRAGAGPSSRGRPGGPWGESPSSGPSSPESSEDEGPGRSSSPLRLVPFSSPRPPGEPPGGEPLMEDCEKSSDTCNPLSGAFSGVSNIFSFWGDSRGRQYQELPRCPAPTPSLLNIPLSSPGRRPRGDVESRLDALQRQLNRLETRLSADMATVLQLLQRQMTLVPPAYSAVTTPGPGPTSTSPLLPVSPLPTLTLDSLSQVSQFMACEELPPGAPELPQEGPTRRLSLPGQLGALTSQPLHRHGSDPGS

| Structure (SMILES) | hERG current change (%, negative = inhibition) at 10uM [%] |
| --- | --- |
| CN(C)c1nc(SCC#N)nc(N(C)C)n1 | -3.57 |
| CCOc1ccc(C(=O)NCC(=O)NNC(=O)C2COc3ccccc3O2)cc1OCC (centres unmarked) | 8.51 |
| COc1cccc(CN(C)CC(=O)NC(=O)NCc2ccco2)c1 | 6.08 |
| CC(=O)N1CCN(C(=O)c2ccc(-c3cccc(C(F)(F)F)c3)o2)CC1 | -53.5 |
| CS(=O)(=O)Nc1ccccc1C(=O)Nc1ccc2c(c1)OCCO2 | 15.4 |
| C[C@@]12N[C@@H](Cc3ccccc31)c1ccccc12.O=C(O)/C=C\C(=O)O | 8.24 |
| CCOc1cc(/C=C/C(=O)Nc2ccc(C(=O)NCCN(CC)CC)cc2)ccc1OCC(C)C | -32.2 |
| CC(=O)Nc1ccc(OCC(O)Cn2cncn2)cc1 (centres unmarked) | 24.7 |
| C=CCc1ccccc1OCC(=O)N/N=C/c1ccc(OC(C)=O)cc1OC(C)=O | -21.7 |
| CC(OC(=O)c1cccn1C)C(=O)Nc1ccc2c(c1)OCO2 (centres unmarked) | -1.51 |
| C=CCOc1ccc(/C=N/NC(=O)C(C)Sc2ccccn2)cc1OC (centres unmarked) | 9.27 |
| CC1CCCCC1NC(=O)COC(=O)c1cc(=O)c2ccccc2o1 (centres unmarked) | 17.3 |
| N#CCC(=O)NNc1c([N+](=O)[O-])cc(C(F)(F)F)cc1[N+](=O)[O-] | 28.8 |
| CC(=O)c1ccc(N(C(=O)Cn2nnc(-c3ccccc3)n2)C(C(=O)NC2CCCCC2)c2ccccn2)cc1 (centres unmarked) | -0.553 |
| COc1ccc(OCC(=O)NC(=S)Nc2ccccc2F)cc1 | 5.17 |
| CNC(CC(=O)c1ccc([N+](=O)[O-])cc1)C(Cl)(Cl)Cl (centres unmarked) | 9.29 |
| COc1cccc(N2CC(C(=O)Nc3nnc(SCCN4CCOCC4)s3)CC2=O)c1 (centres unmarked) | 1.95 |
| COc1ccc(C(=O)C2(C)N(O)C(C)C(c3cccs3)=[N+]2[O-])cc1 (centres unmarked) | -0.251 |
| CCOc1ccc2[nH]c(=O)c(CN(Cc3cccs3)Cc3nnnn3C(C)(C)CC)cc2c1 | -44 |
| Nc1nonc1-n1nnc(C(=O)N/N=C/c2ccc(OCc3ccccc3F)cc2)c1CNc1ccccc1 | 15.9 |
| O=C(CN1C(=O)C2CC=CCC2C1=O)Nc1nc2ccc(F)cc2s1 (centres unmarked) | -12.9 |
| Cc1cc(C)cc(NC(=O)Nc2c(Br)cnn2C)c1 | -11 |

| Structure (SMILES) | hERG current change (%, negative = inhibition) at 10uM [%] |
| --- | --- |
| O=CNCC(=O)NCCc1ccc(Cl)cc1 | 6.96 |
| O=C1CC(SC2=NCCS2)C(=O)N1c1ccc(Cl)cc1 (centres unmarked) | -10.8 |
| CC(C)(C)C(=O)OCc1cn(-c2ccc(Cl)cc2)nn1 | -6.14 |
| CC(NC(=O)c1cncc(Br)c1)c1ccc(S(N)(=O)=O)cc1 (centres unmarked) | -7.14 |
| COc1cc(C(=O)N/N=C/c2ccc(OC(=O)c3cccc(C)c3)c(OC)c2)ccc1O | 5.97 |
| CCCCCC(=O)NNC1CC(=O)N(c2cccc(OCC)c2)C1=O (centres unmarked) | 2.73 |
| COC(=O)c1ccc(NC(=O)Cn2nnc3ccccc32)cc1 | 6.73 |
| COc1ccc(NC(=S)N(CCN(C)C)C(C)c2ccco2)cc1 (centres unmarked) | -16.6 |
| CCC(C)(C(=O)NC1CCCCC1)N(Cc1ccco1)C(=O)c1ccccn1 (centres unmarked) | -6.11 |
| CNC(=O)c1sccc1S(=O)(=O)Cc1c(Cl)cccc1Cl | 4.89 |
| COc1cc2c(cc1OC)C(C)N(C(=O)c1cc3c(s1)-c1ccccc1OC3)CC2 (centres unmarked) | -9.99 |
| Cc1cc2cc(CCNC(=O)C3c4ccccc4Oc4ccccc43)c(=O)[nH]c2cc1C | -0.822 |
| Cc1c(NC(=O)OCCNC(=O)Nc2ccccc2)sc(=S)n1C | 15 |
| Oc1c(C=NCc2ccccc2)sc2ccccc12 | 5.42 |
| Cc1ccc(NC(=O)C(=O)NCc2ccc(/C=N/NC(=O)c3c(C)nc4ccccn34)o2)cc1 | 1.37 |
| O=[N+]([O-])c1ccc2[nH]c3c(c2c1)CCCC3 | 8.3 |
| O=C1OC(c2ccc3c(c2)OCO3)=N/C1=C\c1ccc(C(=O)O)cc1 | 16.2 |
| CN(c1ccccc1)c1ncccn1 | 18 |
| CCOc1cc(-c2cc(-c3ccc(NC(C)=O)cc3)nc(N)c2C#N)ccc1O | 6.15 |
| O=C1c2ccccc2-c2nc3ncnn3c(-c3ccccc3Cl)c21 | -5.42 |
| COc1ccccc1-c1cn(C(C)(C)C)nc1C | 16 |
| CC(=O)C1=C(O)C(=O)N(CCO)C1c1ccccc1 (centres unmarked) | 4.02 |
